SMILES strings stand for the structures. Hit rate of the full screen: of about 1,200 compounds, about 10 (0.8%) were called active. About 4% were inconclusive and are not listed. Calls come from the whole dose curve; as a rule, active = well fitted inhibition curve with a large enough effect; inconclusive = small, poorly fitted or top-dose-only effect; inactive = no such curve, though single readings can be large or run the other way. The list shows a part of the results.
% is set by controls: 0 for no effect and ±100 for the full control effect.

The test in a line: qHTS Assay to Find Inhibitors of Chronic Active B-Cell Receptor Signaling: Hit Validation in OCI-Ly3 Assay. The settings on record: OCI-Ly3 IkB-luciferase reporter, Chroma-Glo luminescence, 4 h; series mostly up to 46.1 µM; activity change, negative = inhibition: at the top concentration. The gist of the method: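 OCI-Ly3 cells in IMDM with 0.5% FBS get compound plus 80ng/ml doxycycline (dispensed solution), 4 hrs at 37C. Chroma-Glo read of green IkB-luc and red unfused luc; green/red ratio normalized to basal (0%) and 10 uM MG-132 (100%); concentration-response curves for each signal.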
Consider `CCOc1ccccc1N=NC1C(=O)N(C(N)=S)N=C1C` (stereo unspecified), for which the “activity change, negative = inhibition” value is inactive: 0.548%. The value for `CCOC(=O)c1[nH]c(C)c(C(=O)Nc2cc(Cl)ccc2C)c1C` was inactive: -1.25%; that for `CCCc1noc2c1C(c1ccoc1)C(C#N)=C(N)N2` (stereo unspecified) was inactive: -1.84%; that for `COc1ccccc1CNC(=O)CSc1ccc(Br)cc1` was inactive: 0.0236%. The figure for `Cc1nn(CCC(=O)NNC(=S)Nc2ccccc2)c(C)c1Br` is inactive: 0.0269%; for `Cc1c(C(=O)OCC(C)C)[nH]c2c1C(=O)CC(c1cccs1)C2` (stereo unspecified) it is inactive: -0.184%. The figure for `CCC(C)n1c(NC(=O)c2ccccc2)c(C#N)c2nc3ccccc3nc21` (stereo unspecified) is inactive: -1.44%; for `C[C@H](Cc1ccccc1)Nc1ncnc2c1ncn2[C@@H]1O[C@H](CO)[C@@H](O)[C@H]1O` it is inactive: -0.284%. Regarding `COc1cc(-c2c(-c3cc(OC)c(OC)c(OC)c3)noc2C)ccc1F`, the “activity change, negative = inhibition” value was inactive: -4.21%. The value for `Oc1cccc(Nc2nc(N3CCOCC3)nc(N3CCOCC3)n2)c1` was inactive: -3.59%; that for `NC(=S)N/N=C/c1ccccc1OC(=O)/C=C/c1ccccc1` was inactive: -2.49%; that for `O=C(c1cc([N+](=O)[O-])ccc1N1CCOCC1)N1CCN(c2ccccc2)CC1` was inactive: -2.33%. The value for `COc1ccc(-c2c(C)c3ccc(O)cc3oc2=O)cc1OC` was inactive: 1.38%. For `Cc1ccc(Cl)cc1NC(=S)N/N=C/c1cccc2ccccc12`, the “activity change, negative = inhibition” value was inactive: -2.62%. The figure for `Cc1cc2c(cc(C(=O)OCC(=O)NCc3cccs3)n2C(C)C)o1` is inactive: -2.7%. The figure for `COC(=O)c1cc(C#N)c(N(C)Cc2ccccc2)nc1C` is inactive: -1.12%; for `O=C(N/N=C/c1ccc(O)cc1)c1[nH]c2ccc(Br)cc2c1-c1ccccc1` it is inactive: -7.64%. The value for `CCCCCOC(=O)c1[nH]c2c(c1C)C(=O)CC(c1ccco1)C2` (stereo unspecified) was inactive: -1.57%; that for `NNC(=O)/C(=C\c1ccco1)NC(=O)c1ccco1` was inactive: -1.05%; that for `Cc1ccc2[nH]c(-c3ccccc3)cc(=O)c2c1` was inactive: -6.88%. As for `Cc1csc(NC(=S)NC(=O)c2ccccc2)n1`, the “activity change, negative = inhibition” value is inactive: -1.5%. The value for `CC[C@@H]1Cc2cc(O)ccc2C2=C1c1ccc(O)cc1C[C@H]2CC` was inactive: 0.595%; that for `CCOC(=O)c1[nH]c(C)c(C(=O)c2cc(F)ccc2F)c1C` was inactive: -2.9%; that for `O=C(/C=C\c1ccco1)Nc1cc([N+](=O)[O-])ccc1F` was inactive: -2%. As to `COc1ccc([C@H]2CC(=O)C=C(c3ccc(OC)cc3OC)C2)cc1`, the “activity change, negative = inhibition” value is inactive: -5.5%. The value for `CCOc1nc(OCC)nc(N2CCC(C)CC2)n1` was inactive: -0.491%. The value for `Cc1c(CCC(=O)NCCCC(=O)O)c(=O)oc2cc3oc4c(c3cc12)CCCC4` was inactive: 0.133%; that for `CC1CCC2C(=O)N(c3ccc(C(=O)Oc4cccc5cccnc45)cc3)C(=O)C2C1` (stereo unspecified) was inactive: -1.75%; that for `Cc1ccccc1OCCc1c(C)[nH]c(=S)[nH]c1=O` was inactive: -3.08%. Regarding `COc1cc2cnc(-c3ccccc3)cc2cc1OC`, the “activity change, negative = inhibition” value is inactive: -8.58%.

In the case of `N#Cc1cccc2c1-c1ccccc1/C2=N/NC(N)=S`, the “activity change, negative = inhibition” value was inactive: 1.03%. `CN1CCN(C(=S)NC(=O)c2ccc(-c3ccccc3)cc2)CC1`: the “activity change, negative = inhibition” value was inactive: -29.4%.

Regarding `COc1ccc(C)cc1Nc1cc(C)nc2ncnn12`, the “activity change, negative = inhibition” value is inactive: -1.77%. `C=CCC(CC(O)COCCC)C(=O)NNC(=S)Nc1ccccc1` (stereo unspecified): the “activity change, negative = inhibition” value was inactive: -1.36%. The figure for `CCC1=Nc2cc(C(=O)NCc3ccco3)ccc2Sc2ccc(Cl)cc21` is inactive: -6.28%. The value for `CCOc1ccc2nc(NC(=O)c3ccc(OC)c(S(=O)(=O)N4CCOCC4)c3)sc2c1` was inactive: -1.16%; that for `Cn1c(=S)c2[nH]c(SCCN3CCCC3)nc2n(C)c1=O` was inactive: -0.216%.

For `S=C(Nc1ccccc1)c1nc2ccccc2s1`, the “activity change, negative = inhibition” value is inactive: -0.921%. For `CC(=O)Nc1nc2ccc(-c3nc4ccccc4o3)cc2s1`, the “activity change, negative = inhibition” value was inactive: -1.68%. The value for `Cc1noc(C)c1CSc1ccc2ccccc2n1` was inactive: -2.35%; that for `COc1cc(C(CCN2CCOCC2)c2c(OC)cc(OC)c3c(-c4ccccc4)cc(=O)oc23)cc(OC)c1OC` (stereo unspecified) was inactive: -1.16%.

On to `COc1ccccc1-c1cc(C(=O)NCCc2ccccc2)no1`, for which the “activity change, negative = inhibition” value was inactive: -4.78%. On to `COc1cc(-c2noc(C)c2C#Cc2ccc(N)cc2)cc(OC)c1OC`, for which the “activity change, negative = inhibition” value is inactive: -8.49%. The value for `CC[C@]12c3[nH]c4cc(CCC(=O)N(C)C)ccc4c3CCN1C(=O)[C@@H](CC(=O)NCCc1ccccn1)C[C@@H]2C(=O)N1CCN(C(=O)C2CC2)CC1` was inactive: 0.416%; that for `COc1ccc(CN2C[C@H]3CCCN3c3cc(Br)ccc3S2(=O)=O)cc1` was inactive: -3.64%; that for `Cc1ccc(OC/C(=N\O)C(C)(C)C)c([N+](=O)[O-])c1` was inactive: -0.43%. In the case of `CCc1nnc(NC(=S)Nc2ccccc2)s1`, the “activity change, negative = inhibition” value is inactive: 23.9%. As to `COc1cc2c(cc1OC)C(c1cc3cc(OC)c(OC)cc3[nH]c1=O)N(C(=O)C1CC1)CC2` (stereo unspecified), the “activity change, negative = inhibition” value was inactive: -0.249%.

With `Oc1c(CN2CCN(c3ccccc3)CC2)cc(Br)c2cccnc12`, the “activity change, negative = inhibition” value was inactive: -2.02%. Take `S=C(Nc1ccccc1Cl)N(Cc1ccccc1)Cc1ccccn1`: the “activity change, negative = inhibition” value was inactive: -1.33%. On to `Cc1ccccc1C1=NC(C(F)(F)F)(C(F)(F)F)c2c(n(C)c(=O)n(C)c2=O)N1`, for which the “activity change, negative = inhibition” value is inactive: 0.327%. As for `CCc1ccc(N2CC(C(=O)OCC(=O)Nc3ccccc3C)CC2=O)cc1` (stereo unspecified), the “activity change, negative = inhibition” value is inactive: -0.558%. The figure for `COc1cccc(C2NC(=S)NC(C)=C2C(=O)c2ccccc2)c1OC` (stereo unspecified) is inactive: -1.95%; for `COc1cc(NC(=S)NC(=O)c2ccccc2F)ccc1NC(=O)c1ccco1` it is inactive: 0.561%; for `Cc1cc(C)c(C#N)c(SCc2c(F)cccc2[N+](=O)[O-])n1` it is inactive: -2.3%. Take `Cc1nc(NC(=S)Nc2ccccc2)sc1C`: the “activity change, negative = inhibition” value is inactive: 31.6%. For the compound `CC1=Nc2cc(C(=O)NCc3ccco3)ccc2Sc2ccc(C)cc21`, the “activity change, negative = inhibition” value was inactive: -2.52%. The value for `C/C(CCC(C)C)=N\NC(=O)COc1ccccc1-c1ccccc1` was inactive: -1.78%; that for `N#Cc1ccccc1NC(=O)c1cccc(COc2ccc(Cl)cc2Cl)c1` was inactive: -2.77%. The value for `C=CCOc1ccc(/C=C2\SC(N)=NC2=O)cc1OC` was inactive: -0.265%; that for `CCOc1ccc2nc(NC(=O)c3ccccn3)sc2c1` was inactive: 14.3%; that for `Cc1ccc(C(=O)O)cc1NC(=S)NC(=O)C(c1ccccc1)c1ccccc1` was inactive: -0.348%. Consider `NNC(=O)c1[nH]c2ccc(Cl)cc2c1-c1ccccc1`, for which the “activity change, negative = inhibition” value is inactive: -2.64%.

`Cc1cccc(OCCN2C(=O)C(=O)c3cc(C)ccc32)c1`: the “activity change, negative = inhibition” value is inactive: -1.66%. The figure for `O=C(COc1ccc(C(=O)c2ccccc2)cc1)NCc1ccc(F)cc1` is inactive: -3.78%; for `Cc1ccccc1NC(=S)NCc1ccc2c(c1)cc(C)n2C` it is inactive: -2.83%; for `CCOc1ccc(C(=O)NC(=S)Nc2cccc(S(=O)(=O)NC3=NCCC3)c2)cc1` it is inactive: -4.42%.

Consider `CCOc1cc(/C=N\NC(N)=O)cc(Br)c1OC(C)C`, for which the “activity change, negative = inhibition” value is inactive: -0.42%. `Cc1nn(CCC(=O)NNC(=S)NCC(C)C)c(C)c1Br`: the “activity change, negative = inhibition” value is inactive: -0.205%. The value for `COc1ccccc1CNS(=O)(=O)c1ccc(-c2cc(C)no2)cc1` was inactive: -2.61%.

For the compound `CCCC1=Nc2cc(C(=O)NCCCOCC)ccc2Sc2ccccc21`, the “activity change, negative = inhibition” value is inactive: -2.7%.
